{"source": "PubChem BioAssay (Tox21)", "assay": "qHTS assay to identify small molecule antagonists of the thyroid receptor (TR) signaling pathway (AID 743065); note: nearly all actives have a fitted effect of over 55% in size", "conditions": "GH3.TRE-Luc, T3-stimulated luciferase inhibition, 23.5 h; series mostly up to 32.5 µM", "in_short": "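Antagonism measured as loss of luciferase signal in GH3 cells stably carrying a TRE-luciferase reporter, co-treated with compound and T3 (1 nM final) for 23.5 h at 37 C. Viability was read in the same well by CellTiter-Fluor.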", "note": "Results filed as inconclusive are left out. Calls come from the whole dose curve; as a rule, active = well fitted inhibition curve with a large enough effect in the repeat runs; inconclusive = weak or mixed curves; inactive = no such curve, though single readings can be large or run the other way. A structure can be active in one record and inactive in another. Not every entry of the source has a single result; some have several. They are shown here; other results are not. The source may hold further records. Results that share an entry are repeats across runs, samples, wells, individuals or studies. Brackets tell where a record comes from. The letters are not those of the source and start again with each entry. Potency is the fitted concentration of half-maximal effect."}
{"smiles": "NC[C@H]1O[C@H](O[C@H]2[C@H](O)[C@@H](O[C@H]3O[C@H](CO)[C@@H](O)[C@H](N)[C@H]3O)[C@H](N)C[C@@H]2N)[C@H](O)[C@@H](O)[C@@H]1O", "values": [{"measurement": "Potency", "value": "inactive [sample A] and active: 2.38 µM [sample B]"}]}
